Hit rate of the full screen: of about 310,000 compounds, about 14,000 (4.5%) showed an effect of 50% or more. The effect is printed as a negative number. This is one part of the list.
target: human ether-à-go-go-related gene (hERG) potassium channel (human, UniProt Q12809); test: primary screen, population patch clamp on CHO cells stably expressing hERG
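Also: peak tail current of the secondary pulse compared with the same well before compound.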

Sequence of human ether-à-go-go-related gene (hERG) potassium channel (Q12809 whole entry, looked up): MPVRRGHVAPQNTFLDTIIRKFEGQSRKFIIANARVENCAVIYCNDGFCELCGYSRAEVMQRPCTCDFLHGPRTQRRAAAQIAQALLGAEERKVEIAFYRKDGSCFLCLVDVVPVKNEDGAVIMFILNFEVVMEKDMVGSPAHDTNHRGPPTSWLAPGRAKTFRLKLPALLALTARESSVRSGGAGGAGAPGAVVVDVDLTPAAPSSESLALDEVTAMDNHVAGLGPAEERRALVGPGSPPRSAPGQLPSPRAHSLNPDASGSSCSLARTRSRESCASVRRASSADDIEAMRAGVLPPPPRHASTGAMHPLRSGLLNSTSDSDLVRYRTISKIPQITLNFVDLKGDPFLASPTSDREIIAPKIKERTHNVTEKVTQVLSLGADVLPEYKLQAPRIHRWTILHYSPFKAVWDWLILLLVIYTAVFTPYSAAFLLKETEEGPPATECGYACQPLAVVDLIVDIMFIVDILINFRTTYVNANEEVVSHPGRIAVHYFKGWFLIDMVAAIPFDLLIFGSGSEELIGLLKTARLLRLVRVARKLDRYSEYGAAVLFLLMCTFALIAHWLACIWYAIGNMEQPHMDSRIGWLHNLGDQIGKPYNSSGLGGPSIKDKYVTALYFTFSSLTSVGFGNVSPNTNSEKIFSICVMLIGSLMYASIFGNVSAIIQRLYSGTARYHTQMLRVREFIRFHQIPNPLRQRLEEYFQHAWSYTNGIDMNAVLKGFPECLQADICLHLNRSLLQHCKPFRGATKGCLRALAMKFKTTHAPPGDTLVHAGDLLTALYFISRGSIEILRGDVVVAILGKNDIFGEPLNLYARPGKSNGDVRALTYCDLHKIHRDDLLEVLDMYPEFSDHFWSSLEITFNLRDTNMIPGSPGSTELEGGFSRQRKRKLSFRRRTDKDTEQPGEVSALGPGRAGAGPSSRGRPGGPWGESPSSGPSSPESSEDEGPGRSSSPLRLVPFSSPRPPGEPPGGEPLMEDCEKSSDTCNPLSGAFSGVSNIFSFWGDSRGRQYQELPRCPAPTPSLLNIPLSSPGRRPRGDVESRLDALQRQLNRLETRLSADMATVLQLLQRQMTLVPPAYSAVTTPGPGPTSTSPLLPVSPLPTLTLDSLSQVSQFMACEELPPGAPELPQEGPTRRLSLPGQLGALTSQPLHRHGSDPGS

SMILES	hERG current change (%, negative = inhibition) at 10uM
COC(=O)CC(=O)N1CCN(c2ccc(Cl)c(Cl)c2)CC1	-8.16%
CC1CCC(NC(=O)C2CCN(S(=O)(=O)c3cccc4nonc34)CC2)CC1 (stereo not shown)	0.619%
COc1cc(C)c(CNc2cccc(C)c2)cc1C	2.74%
CCN(CC)S(=O)(=O)c1ccc(Cl)c(C(=O)OC2CC(C)OC2=O)c1 (stereo not shown)	10.6%
CNc1cc(CSC)nc(SCc2ccc(Cl)c(Cl)c2)n1	0.667%
C/C(=N\NC(=O)c1c(C)nc2ccccn12)c1ccccc1F	1.58%
CCCOc1ccc(C2C(C(=O)OC)=C(C)N=C3SCCC(=O)N32)cc1OCC (stereo not shown)	-9.52%
Cc1cc(C)c(NC(=O)c2ccc(S(=O)(=O)N(C)C)cc2)c(C)n1	7.04%
CC(=O)c1ccc(NC(=O)c2sc3nc(C)c(C)c(C)c3c2N)cc1	19.3%
Cl.O=C(NCCN1CCN(c2ccccc2)CC1)c1ccccc1F	-11%
O=C(O)C(=O)O.O=[N+]([O-])c1ccc(S(=O)(=O)N(CCCN2CCOCC2)Cc2cccs2)cc1	-70.6%
COc1cc(-c2nc(Cc3ccccc3Cl)no2)cc(OC)c1OC	-12%
Cc1cc(C)cc(C(=O)NCC(=O)N2CCC3(CC2)NCCc2[nH]cnc23)c1	11.9%
CN(Cc1cccs1)C(=O)CNC(=O)c1ccco1	22%
Cc1ccc(N2C(=O)CC(=O)NC2=O)c(C)c1	17.2%
Cn1c(SCc2ccccc2F)nc2ccccc2c1=O	-6.1%
CCC(C)(C)n1nnnc1C(C(C)C)N(CCCO)Cc1cc2cc(C)ccc2[nH]c1=O (stereo not shown)	-20.9%
CCc1ccc2oc(=O)cc(CN(C)Cc3ccccc3)c2c1	-13.5%
Cc1cc(OCC(=O)N2CCC(C(=O)O)CC2)c2c(C)cc(=O)oc2c1	2.76%
COc1cc(/C=C(\C#N)c2ccccn2)ccc1OCc1ccccc1Cl	-21.1%
CSc1nc2ccc(Nc3nc(N4CCOCC4)nc(N4CCOCC4)n3)cc2s1	-35%
CC(C)C[C@H](NC(=O)c1nc[nH]c1C(=O)N(C)Cc1ccccc1)C(=O)OC(C)(C)C	-15.4%
CN(C)c1ccc(/C=N/NC(=O)c2ccc3c(c2)OCCO3)cc1	9.93%
COc1ccc(C(=O)Nc2cccc(S(C)(=O)=O)c2)cc1	-5.19%
CNC(=O)c1ccccc1NC(=O)C1CC(=O)N(c2ccc(OC)cc2)C1 (stereo not shown)	-12.3%

Source: article PMC4336329 (PLoS ONE, 2015)
